Assay results taken from the supplement of paper PMC10320760.
Single values of this set are uncertain.

B1: Ydj1; a variant is named by its letters at X, in order (parent)
chain: MVKETKFYDILGVPVTATDVEIKKAYRKCALKYHPDKNPSEEAAEKFKEASAAYEILSDPEKRDIYDQFGEDGLSGAGGAGGFPGGGFGFGDDIFSQFFGAGGAQRPRGPQRGKDIKHEISASLEELYKGRTAKLALNKQILCKECEGRGGKKGAVKKCTSCNGQGIKFVTRQMGPMIQRFQTECDVCHGTGDIIDPKDRCKSCNGKKVENERKILEVHVEPGMKDGQRIVFKGEADQAPDVIPGDVVFIVSERPHKSFKRDGDDLVYEAEIDLLTAIAGGEFALEHVSGDWLKVGIVPGEVIAPGMRKVIEGKGMPIPKYGGYGNLIIKFTIKFPENHFTSEENLKKLEEILPPRIVPAIPKKATVDECVLADFDPAKYNRTRASRGGANYDSDEEEQGGEGVQCXXX

Variants of: B1
Experiment: enrichment factor, frequency at 37 °C / frequency at 25 °C (thermotolerance selection) (ratio); higher = more growth at 37 °C, higher likelihood of farnesylation
Conditions: with Saccharomyces cerevisiae ydj1Δ (yWS304); selective temperature 37 °C; reference temperature 25 °C
Procedure: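 Pooled library of all 8,000 Ydj1-CXXX C-terminal motif variants (native CASQ replaced by C + three variable residues, one codon per amino acid) expressed from a CEN plasmid in S. cerevisiae ydj1Δ (yWS304). The library was grown in SC-Ura liquid to A600 ~2 (~8 generations) at permissive 25 °C or selective 37 °C. Reads from 8 and 7 replicates were pooled and variants counted by NGS. Enrichment factor = frequency at 37 °C / frequency at 25 °C, with a +1 correction; it reports Ydj1-dependent thermotolerance, used as a read-out of farnesylation by yeast FTase.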

Variant | enrichment factor
PHG | 1.87
CHG | 1.26
QHG | 1.59
RHG | 0.638
SHG | 1.25
THG | 1.67
VHG | 1.5
WHG | 1.47
YHG | 1.28
DHG | 0.234
AHH | 1.73
EHH | 1.83
FHH | 1.12
GHH | 0.947
HHH | 1.9
IHH | 1.77
KHH | 1.95
LHH | 1.95
MHH | 1.97
NHH | 1.9
PHH | 1.4
CHH | 0.932
QHH | 2.08
RHH | 1.91

Variant | enrichment factor
SHH | 2.21
THH | 1.89
VHH | 1.78
WHH | 1.73
YHH | 1.13
DHH | 0.15
AHI | 1.83
EHI | 1.7
FHI | 1.32
GHI | 0.386
HHI | 2.1
IHI | 2.23
KHI | 1.11
LHI | 1.99
MHI | 1.69
NHI | 1.58
PHI | 1.84
CHI | 0.272
QHI | 2.34
RHI | 1.43
SHI | 1.52
THI | 1.83
VHI | 3.34
WHI | 2.04

Variant | enrichment factor
YHI | 1.67
DHI | 0.212
AHK | 0.386
EHK | 0.165
FHK | 0.189
GHK | 0.188
HHK | 0.0742
IHK | 0.253
KHK | 0.237
LHK | 0.81
MHK | 0.11
NHK | 0.593
PHK | 0.147
CHK | 0.391
QHK | 0.138
RHK | 0.137
SHK | 0.165
THK | 0.274
VHK | 1.24
WHK | 0.161
YHK | 0.151
DHK | 0.158
AHL | 1.8
EHL | 1.68

Variant | enrichment factor
FHL | 0.576
GHL | 0.151
HHL | 0.975
IHL | 1.37
KHL | 0.319
LHL | 1.85
MHL | 1.27
NHL | 1.11
PHL | 1.44
CHL | 0.416
QHL | 1.79
RHL | 0.693
SHL | 0.82
THL | 1.42
VHL | 3.13
WHL | 2.08
YHL | 0.852
DHL | 0.16
AHM | 1.5
EHM | 2.34
FHM | 1.16
GHM | 1.65
HHM | 1.95
IHM | 2.42

Variant | enrichment factor
KHM | 1.53
LHM | 1.87
MHM | 1.89
NHM | 1.9
PHM | 1.74
CHM | 0.57
QHM | 1.92
RHM | 1.47
SHM | 1.41
THM | 1.5
VHM | 3.09
WHM | 2.06
YHM | 4.25
DHM | 1.82
AHN | 1.94
EHN | 1.32
FHN | 1.7
GHN | 1.1
HHN | 1.58
IHN | 1.19
KHN | 1.34
LHN | 1.26
MHN | 1.59
NHN | 2.23

Variant | enrichment factor
PHN | 1.93
CHN | 1.87
QHN | 1.88
RHN | 1.4
SHN | 1.72
THN | 1.67
VHN | 1.68
WHN | 1.73
YHN | 1.12
DHN | 0.184
EHP | 0.196
AHP | 0.158
FHP | 0.867
GHP | 0.195
HHP | 0.206
IHP | 0.0959
KHP | 0.1
LHP | 0.175
MHP | 0.145
NHP | 0.153
PHP | 0.179
QHP | 0.169
CHP | 0.602
RHP | 0.116

Variant | enrichment factor
SHP | 0.2
THP | 0.108
VHP | 0.13
WHP | 1.52
YHP | 0.115
DHP | 0.0708
EHQ | 1.41
AHQ | 1.48
FHQ | 2.66
GHQ | 1.59
HHQ | 1.52
IHQ | 1.8
KHQ | 1.29
LHQ | 1.48
MHQ | 2.06
NHQ | 1.62
PHQ | 1.63
QHQ | 1.8
CHQ | 1.13
RHQ | 1.37
SHQ | 1.38
THQ | 1.48
VHQ | 1.48
